In the supplement of paper PMC12355420:
Where a name gives a salt, the structure may show the parent alone. Some of the results follow. Many values rest on one well or one pass, so single values are uncertain.

Test system: HeLa VPS33A reporter cells
Experiment: relative cell viability (CellMask signal) vs DMSO (fraction of DMSO); HeLa model of a glycosaminoglycan (GAG) storage disease; KI is knock-in and KO knock-out; SDC1 is syndecan 1; higher = less cytotoxic
Conditions: 50 µM; 24 h
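Note: primary screen of an FDA-approved drug library in HeLa reporter cells in 96-well format, CellMask signal normalized to DMSO-treated wells set as 1, under 0.5 deemed highly cytotoxic.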

Row | SMILES | relative cell viability
1 | CC(=O)OC(C)C(C)C(=O)OCC12C3CC(C)(C)[C@H](O[C@@H]1C[C@]1(C)C3=CCC3C4(C)CCC(O[C@@H]5O[C@H](C(=O)O)[C@@H](O[C@H]6O[C@H](CO)[C@@H](O)[C@H](O)[C@H]6O)[C@H](O)[C@H]5O[C@@H]5OC[C@@H](O)[C@H](O)[C@H]5O)[C@](C)(CO)C4CCC31C)C2O (stereo not given in full) [Sodium Aescinate] | 0.00488
2 | CN(C)CCC=C1c2ccccc2C=Cc2ccccc21 [Cyclobenzaprine HCl] | 0.0118
3 | O=C1c2c(O)ccc(O)c2C(=O)c2c(NCCNCCO)ccc(NCCNCCO)c21 [Mitoxantrone HCl] | 0.00551
4 | N=C(N)c1ccc(OCCCCCOc2ccc(C(=N)N)cc2)cc1 [Pentamidine isethionate] | 0.0146
5 | CC(C)C[C@H](NC(=O)[C@@H](NC(=O)c1cccc(-c2ccccc2)n1)[C@@H](C)O)B(O)O | 0.0115
6 | COc1cc(NS(C)(=O)=O)ccc1Nc1c2ccccc2nc2ccccc12 [Amsacrine] | 0.00487
7 | COC(=O)Nc1nc2cc(Sc3ccccc3)ccc2[nH]1 [Fenbendazole] | 0.202
8 | COC(=O)C[C@](O)(CCCC(C)(C)O)C(=O)O[C@@H]1C(OC)=C[C@]23CCCN2CCc2cc4c(cc2[C@H]13)OCO4 [Homoharringtonine] | 0.00906
9 | CC(=O)c1cc2c(o1)C(=O)c1ccccc1C2=O [Napabucasin] | 0.00758
10 | N=C(NCCCCCCNC(=N)NC(=N)Nc1ccc(Cl)cc1)NC(=N)Nc1ccc(Cl)cc1 [Chlorhexidine digluconate] | 0.0484
11 | CC(C)(C)c1cc(NC(=O)Nc2ccc(-c3cn4c(n3)sc3cc(OCCN5CCOCC5)ccc34)cc2)no1 [Quizartinib (AC220)] | 0.202
12 | COC(=O)C1=C(C)NC(C)=C(C(=O)OCCN(C)Cc2ccccc2)C1c1cccc([N+](=O)[O-])c1 (stereo not given) [Nicardipine HCl] | 0.0255
13 | CCN(CCO)CCCOc1ccc2c(Nc3cc(CC(=O)Nc4cccc(F)c4)[nH]n3)ncnc2c1 [Barasertib (AZD1152-HQPA)] | 0.0146
14 | COC(=O)C1=CO[C@@H](O)[C@@H]2C(CO)=CC[C@H]12 [Genipin] | 0.0633
15 | CO[C@H]1/C=C/O[C@@]2(C)Oc3c(C)c(O)c4c(O)c(c(/C=N/N5CCN(C6CCCC6)CC5)c(O)c4c3C2=O)NC(=O)/C(C)=C\C=C\[C@H](C)[C@H](O)[C@@H](C)[C@@H](O)[C@@H](C)[C@H](OC(C)=O)[C@@H]1C [Rifapentine] | 0.18
16 | Cc1c(O)cccc1C(=O)N[C@@H](CSc1ccccc1)[C@H](O)CN1C[C@H]2CCCC[C@H]2C[C@H]1C(=O)NC(C)(C)C [Nelfinavir Mesylate] | 0.0196
17 | COc1cc(NS(C)(=O)=O)ccc1Nc1c2ccccc2nc2ccccc12 [Amsacrine hydrochloride] | 0.00697
18 | COc1cc2nc(N3CCN(C(=O)c4ccco4)CC3)nc(N)c2cc1OC [Prazosin HCl] | 0.0051
19 | CCC[C@H](NC(=O)[C@@H]1[C@H]2CCC[C@H]2CN1C(=O)[C@@H](NC(=O)[C@@H](NC(=O)c1cnccn1)C1CCCCC1)C(C)(C)C)C(=O)C(=O)NC1CC1 [Telaprevir (VX-950)] | 0.247
20 | CCCCCCCCCCCC1=C(O)C(=O)C=C(O)C1=O [Embelin] | 0.00497

Row | SMILES | relative cell viability
21 | CN(C(=O)CN(CCO)CC(=O)N(C)C(C)(C)Cc1ccccc1)C(C)(C)Cc1ccccc1 [Oxethazaine] | 0.00936
22 | COc1cccc2c1C(=O)c1c(O)c3c(c(O)c1C2=O)CC(O)(C(=O)CO)CC3OC1CC(N)C(O)C(C)O1 (stereo not given) [Doxorubicin (Adriamycin) HCl] | 0.00374
23 | CC(CN(C)C)CN1c2ccccc2CCc2ccccc21 (stereo not given) [Trimipramine (maleate)] | 0.0149
24 | CCCCc1nc2cc(/C=C/C(=O)NO)ccc2n1CCN(CC)CC [Pracinostat (SB939)] | 0.381
25 | CO[C@H]1C[C@@H]2CC[C@@H](C)[C@@](O)(O2)C(=O)C(=O)N2CCCC[C@H]2C(=O)O[C@H]([C@H](C)C[C@@H]2CC[C@@H](OCCO)[C@H](OC)C2)CC(=O)[C@H](C)/C=C(\C)[C@@H](O)[C@@H](OC)C(=O)[C@H](C)C[C@H](C)/C=C/C=C/C=C/1C [Everolimus (RAD001)] | 0.00607
26 | CC(C)(C)Cn1c(N)nc2ccc(-c3[nH]c(C(C)(C)C)nc3-c3ccc(F)cc3)nc21 | 0.00454
27 | OC(c1cc(C(F)(F)F)nc2c(C(F)(F)F)cccc12)C1CCCCN1 (stereo not given) [Mefloquine hydrochloride] | 0.00702
28 | CN1CC2c3ccccc3Oc3ccc(Cl)cc3C2C1 (stereo not given) [Asenapine] | 0.00415
29 | CN(C)C(=O)C(CCN1CCC(O)(c2ccc(Cl)cc2)CC1)(c1ccccc1)c1ccccc1 [Loperamide HCl] | 0.0507
30 | CC(C)Oc1ccc(-c2nc(-c3cccc4c3CC[C@@H]4NCCO)no2)cc1C#N [Ozanimod (RPC1063)] | 0.00696
31 | Nc1ncn([C@@H]2O[C@H](CO)[C@@H](O)[C@H]2O)c(=O)n1 [5-Azacytidine] | 0.0217
32 | CN1CCN(C(c2ccccc2)c2ccc(Cl)cc2)CC1 (stereo not given) [Chlorcyclizine (hydrochloride)] | 0.0559
33 | Cc1ccc(Sc2ccccc2N2CCNCC2)c(C)c1 [Vortioxetine] | 0.00238
34 | O[C@@H](COc1cccc2ncccc12)CN1CCN(C2c3ccccc3[C@@H]3[C@H](c4ccccc42)C3(F)F)CC1 (stereo not given in full) | 0.0414
35 | OC1(c2ccc(Cl)c(C(F)(F)F)c2)CCN(CCCC(c2ccc(F)cc2)c2ccc(F)cc2)CC1 [Penfluridol] | 0.00434
36 | CN(C)C/C=C/C(=O)Nc1cc2c(Nc3ccc(F)c(Cl)c3)ncnc2cc1O[C@H]1CCOC1 [Afatinib (BIBW2992)] | 0.006
37 | CC1=C(/C=C/C(C)=C/C=C/C(C)=C/C(=O)Nc2ccc(O)cc2)C(C)(C)CCC1 [Fenretinide] | 0.00554
38 | COc1ccc2cc1Oc1ccc(cc1)C[C@H]1c3c(cc4c(c3Oc3cc5c(cc3OC)CCN(C)[C@@H]5C2)OCO4)CCN1C [Cepharanthine] | 0.0048
39 | N=C(NCCCCCCNC(=N)NC(=N)Nc1ccc(Cl)cc1)NC(=N)Nc1ccc(Cl)cc1 [Chlorhexidine HCl] | 0.0162
40 | Clc1ccc(CCC(Cn2ccnc2)Sc2c(Cl)cccc2Cl)cc1 (stereo not given) [Butoconazole nitrate] | 0.0038
